Among all 270,000 compounds or so, about 620 (0.23%) were called active. The inconclusive results got no clear call from the source; some entries with a clear call stand among them for comparison. Calls follow the shape of the dose curve; as a rule, active = well fitted inhibition curve with a large enough effect in the polarisation, with a control signal flat (not every such curve was filed as active); inconclusive = small, poorly fitted or top-dose-only effect, or effect the other way, or a change in a side signal; inactive = no such curve, though single readings can be large or run the other way; the % refers to the polarisation. Where the call is inconclusive, the potency comes from a doubtful curve fit. “Side channel” marks fits to a control or component signal instead of the main read-out.
What follows are molecules tested against Menin (Homo sapiens) (UniProt O00255) (assay: qHTS Assay for Inhibitors Targeting the Menin-MLL Interaction in MLL Related Leukemias: Competition With Texas Red Labeled MLL-derived Mutant Peptide). Details: fluorescence polarization; FP activity change, negative = inhibition: at 61.6 µM (top of the series).
UniProt O00255, sequence (O00255 whole entry, looked up): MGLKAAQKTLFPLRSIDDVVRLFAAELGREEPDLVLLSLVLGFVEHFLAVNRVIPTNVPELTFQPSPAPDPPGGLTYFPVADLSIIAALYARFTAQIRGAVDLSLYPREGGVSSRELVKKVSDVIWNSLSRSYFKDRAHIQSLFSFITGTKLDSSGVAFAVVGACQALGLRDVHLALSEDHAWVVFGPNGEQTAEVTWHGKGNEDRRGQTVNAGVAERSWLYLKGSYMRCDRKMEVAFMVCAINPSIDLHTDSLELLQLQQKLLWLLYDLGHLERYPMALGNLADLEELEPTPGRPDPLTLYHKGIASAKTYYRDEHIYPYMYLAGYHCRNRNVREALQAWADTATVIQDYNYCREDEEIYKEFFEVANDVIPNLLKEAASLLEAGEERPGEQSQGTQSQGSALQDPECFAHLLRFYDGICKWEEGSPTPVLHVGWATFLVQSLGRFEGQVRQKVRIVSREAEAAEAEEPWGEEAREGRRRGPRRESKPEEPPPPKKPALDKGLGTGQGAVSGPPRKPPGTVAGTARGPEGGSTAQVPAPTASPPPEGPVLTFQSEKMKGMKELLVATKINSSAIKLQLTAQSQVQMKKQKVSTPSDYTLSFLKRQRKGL

For FP activity change, negative = inhibition in this document: % of control where 0% means no effect.
Potency is read from the fitted curve at half-maximal effect; tags tell the direction and shape of the fitted curve or compound fluorescence and quenching.

Compound	Potency	FP activity change, negative = inhibition
Cc1c(C)c2c(c(C)c1O)CCC(C)(COc1ccc(Cc3sc(=O)[nH]c3O)cc1)O2 (stereo unspecified)	inconclusive: 22.4 µM [quencher, side channel, partial curve]	
Cc1ccc(N(CC(=O)NC2CCCCC2)S(=O)(=O)c2c(C)noc2C)cc1	inconclusive: 25.1 µM [fluorescent, side channel, single point]	
Nc1nc(SCc2ccc([N+](=O)[O-])cc2)c2ncn([C@@H]3O[C@H](CO)[C@H](O)[C@H]3O)c2n1		inactive: -2.9%
O=C(COC(=O)c1cc[n+]([O-])cc1)Nc1ccc(F)c([N+](=O)[O-])c1	inconclusive: 25.1 µM [quencher, side channel, single point]	
O=C(COC(=O)c1cn(-c2ccccc2)nc1-c1ccc(F)cc1)Nc1ncc(Cl)cc1Cl	inconclusive: 25.1 µM [quencher, side channel, single point]	
CCOC(=O)c1c(C)oc2c1c(C=NC1CCS(=O)(=O)C1)c(O)c1ccccc12 (stereo unspecified)	inconclusive: 1.58 µM [inhibitor, full curve]	
NS(=O)(=O)c1ccc(N/N=C/c2ccccc2Br)cc1	inconclusive: 15.8 µM [quencher, side channel, partial curve]	
O=C(Nc1ccc2[nH]c(=O)[nH]c2c1)c1ccc(Cl)c(Cl)c1	inconclusive: 39.8 µM [fluorescent, side channel, single point]	
Fc1ccccc1CNCCC(Cc1ccccc1)c1ccc2c(c1)OCO2 (stereo unspecified)	inconclusive: 10 µM [fluorescent, side channel, partial curve]	
O=c1c2c(nc3cc(-c4ccccc4)[nH]n13)CCC2		inactive: -5.46%
COc1ccc(-c2oc3cccnc3c2/C=C/c2ccc(OC)c(OC)c2)cc1	inconclusive: 17.8 µM [quencher, side channel, partial curve]	
O=C(Nc1cccs1)Nc1ccccc1Br	inconclusive: 28.2 µM [quencher, side channel, single point]	
COc1cc(/C=C(\C#N)c2nc3ccccc3[nH]2)cc(Br)c1OCc1ccccc1	inconclusive: 31.6 µM [quencher, side channel, single point]	
Cc1ccc(CCNC(=O)C23CN(Cc4ccccc4)CC2C(c2ccc([N+](=O)[O-])cc2)=NO3)cc1 (stereo unspecified)	inconclusive: 35.5 µM [inhibitor, partial curve]	
CCN(CC)C(=O)c1cn(C)c(=O)c2cc(OC)c(OC)cc12		inactive: -4.6%
Cc1ccc2cc(/C=N/NC(=O)[C@H](C)NC(=O)OC(C)(C)C)c(Cl)nc2c1	inconclusive: 39.8 µM [inhibitor, single point]	
c1ccc(CN2CCN(CCOCCOc3cccc4ccccc34)CC2)cc1	inconclusive: 25.1 µM [inhibitor, partial curve]	
Cc1ccc(-c2cc(-c3ccccc3)no2)c(O)c1	inconclusive: 28.2 µM [inhibitor, single point]	
CC(/C=C1\SC(=S)N(NC(=O)c2ccc(O)cc2)C1=O)=C\c1ccccc1	inconclusive: 10 µM [quencher, side channel, partial curve]	

Compound	Potency	FP activity change, negative = inhibition
CC(C)C[C@H](NC(=O)c1nc[nH]c1C(=O)N1CCN(C(=O)OC(C)(C)C)CC1)C(=O)OCc1ccccc1	inconclusive: 8.91 µM [fluorescent, side channel, partial curve]	
Cc1cccc(NC(=O)CS(=O)(=O)c2c[nH]c3ccccc23)c1C		inactive: 8.95%
O=C(CSc1nc(-c2ccccc2)nc2ccccc12)Nc1nccs1	inconclusive: 39.8 µM [inhibitor, single point]	
CCOC(=O)c1ccc(NC(=O)NCc2ccc(OC)cc2)cc1	inconclusive: 28.2 µM [fluorescent, side channel, single point]	
Cc1ccc2c(c1)C(c1ccccc1)N(C(=O)c1ccccc1[N+](=O)[O-])CC(=O)N2 (stereo unspecified)	inconclusive: 8.91 µM [inhibitor, partial curve]	
CCOc1cc(/C=C2\N=C(SCC)SC2=O)cc([N+](=O)[O-])c1OC(C)=O	inconclusive: 28.2 µM [quencher, partial curve]	
Cc1ccc(Nc2cc(C)nc(-c3ccccc3)n2)cc1	inconclusive: 14.1 µM [quencher, side channel, partial curve]	
COc1cc(/C=N/NC(=S)NCCN2CCOCC2)cc(OC)c1O		inactive: -3.15%
O=C(CN1C(=O)/C(=C2\SC(=S)N(CCS(=O)(=O)O)C2=O)c2ccccc21)Nc1cccc(Br)c1	inconclusive: 39.8 µM [quencher, side channel, single point]	
Cc1ccc(O)c(NC(=S)NC(=O)COc2ccc(Br)cc2)c1	inconclusive: 35.5 µM [quencher, side channel, single point]	
CC1=C(C(=O)O)N2C(=O)[C@@H](NC(=O)[C@@H](N)c3ccccc3)[C@@H]2SC1		inactive: 6.55% [at 24.8 µM]
COc1cccc(/C=N/Nc2ccc([N+](=O)[O-])cn2)c1O	inconclusive: 14.1 µM [quencher, partial curve]	
O=C(CCS(=O)(=O)c1ccccc1)Nc1nc(-c2cccs2)cs1	inconclusive: 39.8 µM [quencher, side channel, single point]	
CCCCc1nc2c(c3c1C[C@H](C)OC3)CN(C(=O)COC)CC2		inactive: -8.17% [at 11.7 µM]
Cn1ccc(C(=O)N/N=C/c2c[nH]c3ccccc23)n1	inconclusive: 25.1 µM [quencher, side channel, single point]	
Cn1cc(/C=N\NC(=O)c2cccs2)c2ccccc21	inconclusive: 31.6 µM [quencher, side channel, single point]	
Cc1ccc(-c2cc(C(=O)N/N=C/c3ccccc3O)n[nH]2)o1	inconclusive: 14.1 µM [quencher, side channel, partial curve]	
Cc1ccc(C)c(OCC(=O)Nc2ccc(C(=O)O)cc2NC(=O)COc2cc(C)ccc2C)c1	inconclusive: 7.08 µM [quencher, side channel, partial curve]	
CSc1nc(SCCO)c2sc3nc(-c4ccco4)c4c(c3c2n1)CC(C)(C)OC4	inconclusive: 28.2 µM [quencher, side channel, partial curve]	

Compound	Potency	FP activity change, negative = inhibition
COC(=O)C1=C(C(=O)OC)[C@@H]2Nc3ccccc3[C@@]23C[C@@H](C(=O)OC)N(S(=O)(=O)c2cccs2)C3=N1		inactive: 1.34% [at 11.7 µM]
COc1cc(-c2nc(-c3ccc(NC(=O)c4ccc5c(c4)OCO5)cc3)no2)cc(OC)c1OC	inconclusive: 7.94 µM [quencher, side channel, full curve]	
Cc1cc(NCCCO)n2nc(-c3cccs3)cc2n1	inconclusive: 10 µM [inhibitor, partial curve]	
CCC(=O)Nc1ccc(S(=O)(=O)N2CCN(c3ccc(F)cc3)CC2)cc1	inconclusive: 12.6 µM [quencher, side channel, single point]	
C=CCNC(=O)C1CCC(CNc2nc(=S)[nH]c3ccccc23)CC1 (stereo unspecified)	inconclusive: 15.8 µM [fluorescent, side channel, partial curve]	
COc1ccc(N2CCN(CCC(O)c3ccc4ccccc4c3)CC2)cc1 (stereo unspecified)	inconclusive: 1.78 µM [inhibitor, partial curve]	
Cc1cc(N=Nc2ccc3ccccc3c2)ccc1O	inconclusive: 14.1 µM [quencher, side channel, partial curve]	
COc1ccccc1-c1n[nH]c(=S)o1	inconclusive: 3.16 µM [inhibitor, single point]	
O=C(CN1CCCc2ccccc21)N/N=C/c1ccccc1O	inconclusive: 31.6 µM [quencher, side channel, single point]	
COc1ccc(C2/C(=C(\O)c3ccc4c(c3)OCCO4)C(=O)C(=O)N2c2nc(C)c(C(C)=O)s2)cc1 (stereo unspecified)	inconclusive: 17.8 µM [quencher, side channel, partial curve]	
O=C(Nc1ccccc1C(=O)O)c1cc(S(=O)(=O)NCc2ccccc2)ccc1Cl	inconclusive: 31.6 µM [quencher, side channel, single point]	
Cc1cccc(NC(=S)N2CCN(S(=O)(=O)c3ccc(F)cc3)CC2)c1	inconclusive: 15.8 µM [quencher, side channel, partial curve]	
CCCCN(C(=O)c1cccc(S(=O)(=O)N2CCN(Cc3ccccc3)CC2)c1)c1ccccc1	inconclusive: 3.55 µM [fluorescent, side channel, full curve]	
CCC1OC2(C)OC(=N)C1(C#N)C(C#N)(C#N)C2c1ccccc1 (stereo unspecified)		inactive: -7.14%
CC(=O)n1cc([C@@H]2C=C(C(=O)N3CCOCC3)O[C@H](OCc3ccc(CO)cc3)C2)c2ccccc21	inconclusive: 39.8 µM [inhibitor, single point]	
COc1ccc(/C=C/N(CCc2ccc(OC)c(OC)c2)C(C)=O)cc1	inconclusive: 7.94 µM [inhibitor, partial curve, poor fit]	
O=C(O)c1cc(-c2ccc(-c3ccc(F)cc3)o2)nc2ccccc12	inconclusive: 25.1 µM [quencher, side channel, single point]	
Cc1ccc(-c2nnc3c4ccccc4c(C)nn23)cc1S(=O)(=O)N1CCN(CCO)CC1	inconclusive: 22.4 µM [inhibitor, partial curve]	
